{
  "source": "paper PMC9911399",
  "about": "“Two distinct binding modes provide the RNA-binding protein RbFox with extraordinary sequence specificity”",
  "binders": {"B1": {"name": "CCUGCUA (DNA:RNA)", "RNA": "GGGAGACCGGAAUUCAGAUUGUCCCCUGCUAUUAAAUCCCGUCGUAGCCACCA", "DNA 1": "CAATCTGAATTCCGGTCTCCC", "DNA 2": "TGGTGGCTACGACGGGATT"}, "B2": {"name": "CUUGUCG (DNA:RNA)", "RNA": "B1 RNA with C26U, C29U, U30C, A31G", "DNA 1": "CAATCTGAATTCCGGTCTCCC", "DNA 2": "TGGTGGCTACGACGGGATT"}, "B3": {"name": "GCCUCAC (DNA:RNA)", "RNA": "B1 RNA with C25G, U27C, G28U, U30A, A31C", "DNA 1": "CAATCTGAATTCCGGTCTCCC", "DNA 2": "TGGTGGCTACGACGGGATT"}, "B4": {"name": "GCUUCAG (DNA:RNA)", "RNA": "B1 RNA with C25G, G28U, U30A, A31G", "DNA 1": "CAATCTGAATTCCGGTCTCCC", "DNA 2": "TGGTGGCTACGACGGGATT"}, "B5": {"name": "ACUCAUC (DNA:RNA)", "RNA": "B1 RNA with C25A, G28C, C29A, A31C", "DNA 1": "CAATCTGAATTCCGGTCTCCC", "DNA 2": "TGGTGGCTACGACGGGATT"}, "B6": {"name": "UGAAACG (DNA:RNA)", "RNA": "GGGAGACCGGAAUUCAGAUUGUCCUGAAACGUUAAAUCCCGUCGUAGCCACCA", "DNA 1": "CAATCTGAATTCCGGTCTCCC", "DNA 2": "TGGTGGCTACGACGGGATT"}, "B7": {"name": "CUACUCA (DNA:RNA)", "RNA": "B1 RNA with C26U, U27A, G28C, C29U, U30C", "DNA 1": "CAATCTGAATTCCGGTCTCCC", "DNA 2": "TGGTGGCTACGACGGGATT"}, "B8": {"name": "GUACGAA (DNA:RNA)", "RNA": "B1 RNA with C25G, C26U, U27A, G28C, C29G, U30A", "DNA 1": "CAATCTGAATTCCGGTCTCCC", "DNA 2": "TGGTGGCTACGACGGGATT"}, "B9": {"name": "AACUUGC (DNA:RNA)", "RNA": "GGGAGACCGGAAUUCAGAUUGUCCAACUUGCUUAAAUCCCGUCGUAGCCACCA", "DNA 1": "CAATCTGAATTCCGGTCTCCC", "DNA 2": "TGGTGGCTACGACGGGATT"}, "B10": {"name": "CAGACAA (DNA:RNA)", "RNA": "B1 RNA with C26A, U27G, G28A, U30A", "DNA 1": "CAATCTGAATTCCGGTCTCCC", "DNA 2": "TGGTGGCTACGACGGGATT"}, "B11": {"name": "AGCACUU (DNA:RNA)", "RNA": "B9 RNA with A26G, U28A, U29C, G30U, C31U", "DNA 1": "CAATCTGAATTCCGGTCTCCC", "DNA 2": "TGGTGGCTACGACGGGATT"}, "B12": {"name": "ACUACAU (DNA:RNA)", "RNA": "B1 RNA with C25A, G28A, U30A, A31U", "DNA 1": "CAATCTGAATTCCGGTCTCCC", "DNA 2": "TGGTGGCTACGACGGGATT"}, "B13": {"name": "CUAGAGG (DNA:RNA)", "RNA": "B6 RNA with U25C, G26U, A28G, C30G", "DNA 1": "CAATCTGAATTCCGGTCTCCC", "DNA 2": "TGGTGGCTACGACGGGATT"}, "B14": {"name": "CGGAAGC (DNA:RNA)", "RNA": "B6 RNA with U25C, A27G, C30G, G31C", "DNA 1": "CAATCTGAATTCCGGTCTCCC", "DNA 2": "TGGTGGCTACGACGGGATT"}, "B15": {"name": "UAAGCCU (DNA:RNA)", "RNA": "B6 RNA with G26A, A28G, A29C, G31U", "DNA 1": "CAATCTGAATTCCGGTCTCCC", "DNA 2": "TGGTGGCTACGACGGGATT"}, "B16": {"name": "AGUAGUA (DNA:RNA)", "RNA": "B1 RNA with C25A, C26G, G28A, C29G", "DNA 1": "CAATCTGAATTCCGGTCTCCC", "DNA 2": "TGGTGGCTACGACGGGATT"}, "B17": {"name": "GAACAGU (DNA:RNA)", "RNA": "B9 RNA with A25G, C27A, U28C, U29A, C31U", "DNA 1": "CAATCTGAATTCCGGTCTCCC", "DNA 2": "TGGTGGCTACGACGGGATT"}, "B18": {"name": "GGUGCCC (DNA:RNA)", "RNA": "B1 RNA with C25G, C26G, U30C, A31C", "DNA 1": "CAATCTGAATTCCGGTCTCCC", "DNA 2": "TGGTGGCTACGACGGGATT"}, "B19": {"name": "CGGCAUG (DNA:RNA)", "RNA": "B6 RNA with U25C, A27G, A28C, C30U", "DNA 1": "CAATCTGAATTCCGGTCTCCC", "DNA 2": "TGGTGGCTACGACGGGATT"}, "B20": {"name": "UCGAUAG (DNA:RNA)", "RNA": "B6 RNA with G26C, A27G, A29U, C30A", "DNA 1": "CAATCTGAATTCCGGTCTCCC", "DNA 2": "TGGTGGCTACGACGGGATT"}, "B21": {"name": "GUGUCUA (DNA:RNA)", "RNA": "B1 RNA with C25G, C26U, U27G, G28U", "DNA 1": "CAATCTGAATTCCGGTCTCCC", "DNA 2": "TGGTGGCTACGACGGGATT"}, "B22": {"name": "CCCUCCC (DNA:RNA)", "RNA": "B9 RNA with A25C, A26C, U29C, G30C", "DNA 1": "CAATCTGAATTCCGGTCTCCC", "DNA 2": "TGGTGGCTACGACGGGATT"}, "B23": {"name": "CUUACGA (DNA:RNA)", "RNA": "B1 RNA with C26U, G28A, U30G", "DNA 1": "CAATCTGAATTCCGGTCTCCC", "DNA 2": "TGGTGGCTACGACGGGATT"}, "B24": {"name": "ACAGAAG (DNA:RNA)", "RNA": "B6 RNA with U25A, G26C, A28G, C30A", "DNA 1": "CAATCTGAATTCCGGTCTCCC", "DNA 2": "TGGTGGCTACGACGGGATT"}, "B25": {"name": "AACUUAA (DNA:RNA)", "RNA": "B9 RNA with G30A, C31A", "DNA 1": "CAATCTGAATTCCGGTCTCCC", "DNA 2": "TGGTGGCTACGACGGGATT"}, "B26": {"name": "GGGGUGU (DNA:RNA)", "RNA": "B9 RNA with A25G, A26G, C27G, U28G, C31U", "DNA 1": "CAATCTGAATTCCGGTCTCCC", "DNA 2": "TGGTGGCTACGACGGGATT"}, "B27": {"name": "UAUGCAA (DNA:RNA)", "RNA": "B1 RNA with C25U, C26A, U30A", "DNA 1": "CAATCTGAATTCCGGTCTCCC", "DNA 2": "TGGTGGCTACGACGGGATT"}, "B28": {"name": "AGCGUAC (DNA:RNA)", "RNA": "B9 RNA with A26G, U28G, G30A", "DNA 1": "CAATCTGAATTCCGGTCTCCC", "DNA 2": "TGGTGGCTACGACGGGATT"}, "B29": {"name": "GCGAAUU (DNA:RNA)", "RNA": "B1 RNA with C25G, U27G, G28A, C29A, A31U", "DNA 1": "CAATCTGAATTCCGGTCTCCC", "DNA 2": "TGGTGGCTACGACGGGATT"}, "B30": {"name": "CUUCGUG (DNA:RNA)", "RNA": "B1 RNA with C26U, G28C, C29G, A31G", "DNA 1": "CAATCTGAATTCCGGTCTCCC", "DNA 2": "TGGTGGCTACGACGGGATT"}, "B31": {"name": "GCUAUUU (DNA:RNA)", "RNA": "B1 RNA with C25G, G28A, C29U, A31U", "DNA 1": "CAATCTGAATTCCGGTCTCCC", "DNA 2": "TGGTGGCTACGACGGGATT"}},
  "note": "Substitutions are numbered along the chain they refer to; changes in the protein carry UniProt numbers. This is one part of the list.",
  "data": [
    {"target": "T1, RBFOX1 RRM RbFoxmut (Fox-RRM*) (Homo sapiens, UniProt Q9NWB1 109-208, R118D;E147R;N151S;E152T)", "T1 sequence": "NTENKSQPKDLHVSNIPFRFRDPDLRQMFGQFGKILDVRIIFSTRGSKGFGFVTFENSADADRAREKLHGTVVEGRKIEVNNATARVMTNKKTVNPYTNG", "test": "EMSA; HiTS-Eq, 1 nM pool, 10 min; buffer printed only for the single-RNA assays: 10 mM Tris pH 7.5, 150 mM NaCl, 3.4 mM EDTA, 0.001% NP-40, 30 C", "settings": "tags: His6 N-terminal (pET28a); label: 5' 32P", "how_it_was_run": "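These values rest on relative association constants, computed from read-count changes of each RNA species versus the control reaction and normalised to the cognate motif. Reads came from free RNA recovered by 8% native PAGE after purified RbFox RRM (wild type or mutant) at increasing concentrations was equilibrated for 10 min in 50 µL with 1 nM of a 5′-radiolabelled pool with 7 randomized nucleotides and DNA-annealed flanks.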", "values": [
      {"binder": "B1", "binding signal": "0.0988 KA relative to UGCAUGU"},
      {"binder": "B2", "binding signal": "0.13 KA relative to UGCAUGU"},
      {"binder": "B3", "binding signal": "0.0785 KA relative to UGCAUGU"},
      {"binder": "B4", "binding signal": "0.133 KA relative to UGCAUGU"},
      {"binder": "B5", "binding signal": "0.069 KA relative to UGCAUGU"},
      {"binder": "B6", "binding signal": "0.0885 KA relative to UGCAUGU"},
      {"binder": "B7", "binding signal": "0.139 KA relative to UGCAUGU"},
      {"binder": "B8", "binding signal": "0.121 KA relative to UGCAUGU"},
      {"binder": "B9", "binding signal": "0.0864 KA relative to UGCAUGU"},
      {"binder": "B10", "binding signal": "0.0402 KA relative to UGCAUGU"},
      {"binder": "B11", "binding signal": "0.0746 KA relative to UGCAUGU"},
      {"binder": "B12", "binding signal": "0.094 KA relative to UGCAUGU"},
      {"binder": "B13", "binding signal": "0.0724 KA relative to UGCAUGU"},
      {"binder": "B14", "binding signal": "0.0533 KA relative to UGCAUGU"},
      {"binder": "B15", "binding signal": "0.0897 KA relative to UGCAUGU"},
      {"binder": "B16", "binding signal": "0.136 KA relative to UGCAUGU"},
      {"binder": "B17", "binding signal": "0.0727 KA relative to UGCAUGU"},
      {"binder": "B18", "binding signal": "0.0712 KA relative to UGCAUGU"},
      {"binder": "B19", "binding signal": "0.998 KA relative to UGCAUGU"},
      {"binder": "B20", "binding signal": "0.1 KA relative to UGCAUGU"},
      {"binder": "B21", "binding signal": "0.13 KA relative to UGCAUGU"},
      {"binder": "B22", "binding signal": "0.0396 KA relative to UGCAUGU"},
      {"binder": "B23", "binding signal": "0.0655 KA relative to UGCAUGU"},
      {"binder": "B24", "binding signal": "0.132 KA relative to UGCAUGU"},
      {"binder": "B25", "binding signal": "0.113 KA relative to UGCAUGU"},
      {"binder": "B26", "binding signal": "0.267 KA relative to UGCAUGU"},
      {"binder": "B27", "binding signal": "0.067 KA relative to UGCAUGU"},
      {"binder": "B28", "binding signal": "0.123 KA relative to UGCAUGU"},
      {"binder": "B29", "binding signal": "0.113 KA relative to UGCAUGU"},
      {"binder": "B30", "binding signal": "0.135 KA relative to UGCAUGU"},
      {"binder": "B31", "binding signal": "0.0933 KA relative to UGCAUGU"}
    ]}
  ]
}
